# Laboratory results taken from the supplement of paper PMC3334620.
# The full ranking holds about 33,000 sequences; the median of “E-score (-0.5 to 0.5)” is about -0.054, and the highest 2% start at about 0.35. The list shows a part of the results.
# Target: T1, Stb5 (UniProt P38699)
# T1 sequence: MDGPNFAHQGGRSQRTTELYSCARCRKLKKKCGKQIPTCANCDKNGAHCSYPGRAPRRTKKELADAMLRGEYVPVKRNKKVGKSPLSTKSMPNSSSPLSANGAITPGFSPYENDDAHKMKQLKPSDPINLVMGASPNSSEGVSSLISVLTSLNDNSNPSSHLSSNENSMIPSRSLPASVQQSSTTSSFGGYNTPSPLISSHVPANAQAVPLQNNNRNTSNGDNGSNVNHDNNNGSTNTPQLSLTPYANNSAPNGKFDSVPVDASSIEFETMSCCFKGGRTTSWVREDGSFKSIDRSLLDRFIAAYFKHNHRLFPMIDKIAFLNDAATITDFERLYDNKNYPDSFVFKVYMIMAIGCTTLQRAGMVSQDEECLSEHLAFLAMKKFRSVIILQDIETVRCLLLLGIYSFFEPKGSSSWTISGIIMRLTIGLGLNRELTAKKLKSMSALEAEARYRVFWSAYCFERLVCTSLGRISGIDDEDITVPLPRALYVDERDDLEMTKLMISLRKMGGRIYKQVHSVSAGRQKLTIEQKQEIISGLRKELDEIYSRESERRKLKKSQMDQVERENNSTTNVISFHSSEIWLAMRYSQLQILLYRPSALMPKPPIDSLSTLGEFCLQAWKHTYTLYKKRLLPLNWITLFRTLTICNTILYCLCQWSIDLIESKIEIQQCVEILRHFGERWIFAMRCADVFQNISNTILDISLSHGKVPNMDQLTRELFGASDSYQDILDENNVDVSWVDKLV
# Experiment: PBM E-score (8-mer binding enrichment) (E-score (-0.5 to 0.5)); higher = stronger / more preferred TF binding; most listed sequences are background and not binding sites
# Conditions: protein concentration: 200 nM; construct: GST-full length
# Procedure, shortened: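 Bound GST-tagged yeast transcription factors, applied at about 100-200 nM to double-stranded universal all-10-mer Agilent arrays, were detected with fluorescent anti-GST. Scans were normalised with masliner. A modified Wilcoxon-Mann-Whitney statistic, the E-score, was assigned to each ungapped eight-base word pooled with its reverse complement by the Universal PBM Analysis Suite.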
row,Sequence,PBM E-score
1,CGCGAATC,-0.0438
2,AACACTGA,-0.293
3,GCAGAGCC,-0.159
4,CTATTGCC,0.281
5,GGGCTAAC,-0.0393
6,AACTCATC,-0.116
7,CGGCGTGC,0.109
8,AGAATCAA,-0.063
9,CCGTTCAA,0.264
10,AACGGAAG,0.00045
11,GTAATCCA,0.0117
12,CACGCTAG,-0.259
13,ACTCCATG,-0.0336
14,CCGAAACC,0.144
15,GTCATCAC,-0.147
16,AATATTAG,-0.137
17,GCCTCTCC,-0.285
18,GAACACAA,-0.31
19,ATCGCGCA,-0.213
20,AAGCCATC,-0.12
21,ATGCTGAA,-0.185
22,CAGCCGAC,0.146
23,ATTAGTTA,0.0189
24,CACGTCCA,-0.128
25,AGACCTGA,-0.123

row,Sequence,PBM E-score
1,TCCTTAGA,-0.114
2,AGACTATC,-0.205
3,ATTCAGTG,0.00016
4,TAGGGAGA,-0.107
5,AGGCGTGC,-0.128
6,AGCGCACG,0.0995
7,ACAGTAGG,-0.225
8,CGTCAGTA,-0.101
9,AAAACGAG,-0.18
10,CCGGCGAG,0.154
11,GAGGGAGC,-0.255
12,AGGTTTAA,-0.147
13,TGATATAA,0.0825
14,ATCCCCTG,0.0213
15,ACTGCTTG,-0.185
16,ACTACAGA,-0.0118
17,CTTCATAA,-0.00453
18,AATACCGC,0.454
19,CCACTAGG,-0.166
20,CATTGACC,0.0053
21,GGGTCCTA,-0.127
22,ACTTCCAT,-0.108
23,GGTCGCAC,0.237
24,CGACAACA,-0.0433
25,ATTTTCCA,-0.128

row,Sequence,PBM E-score
1,GCTGTGCC,-0.0383
2,CCAATAAG,-0.162
3,GAGCTACC,-0.0323
4,GAGAAGCC,0.0161
5,TGCCCGAA,-0.00042
6,GTATCCGA,0.0664
7,GAAGTCGC,-0.0322
8,CCACGGAA,0.128
9,ACGCCTTA,-0.0391
10,GGTATCGA,0.00137
11,CTAATGCC,0.285
12,ACCTCACG,0.0237
13,AGAGGATG,-0.0895
14,AACACAGG,-0.165
15,CGTGAACC,0.0987
16,CTTCGGTA,0.178
17,AGTTCGAA,0.0585
18,CACTGACC,0.00405
19,GTAACAAA,0.0447
20,CTCTCAAC,-0.102
21,GCCTCTTA,-0.172
22,AGGCTAAG,-0.0956
23,CGATTACC,0.178
24,CTTCGCTA,-0.183
25,AGACAAAT,-0.128

row,Sequence,PBM E-score
1,TCAGAGAA,-0.252
2,CATATAAG,-0.0781
3,ACCGTATC,0.262
4,CCTTTAAA,-0.0266
5,ACGTAAAA,-0.0505
6,GCGACGAA,-0.0446
7,AAGCAATG,-0.183
8,TAAGGCTA,-0.187
9,AAGAGATT,0.00068
10,ACCTTACA,-0.0752
11,CCGCACGC,0.0937
12,CCCTTGTC,-0.0955
13,ATAGTGCC,0.336
14,GGAGATAA,0.348
15,GGACGGTA,0.241
16,AGGACGAT,-0.296
17,CGCGCATA,0.112
18,AGGAACCG,0.0514
19,CACGCGAC,-0.0769
20,ATCGGAAT,0.15
21,GCCTGTCA,-0.152
22,CCTCTGGA,-0.0749
23,ACATAAGG,0.124
24,CCGTTCGC,0.194
25,AACTGACG,-0.0736

row,Sequence,PBM E-score
1,ACACCCTA,-0.276
2,AAGCAACC,0.0322
3,CCGCAGCC,0.17
4,AGTTGAAG,-0.196
5,CACATAAC,-0.0228
6,AACACATC,-0.258
7,GGTTACTA,0.0175
8,AGAGCGCT,-0.00185
9,ATCCGACG,0.263
10,GCATGTGA,-0.168
11,GTCGCATA,-0.0299
12,GACATGCA,-0.131
13,ATGGGTCG,0.019
14,CGACAGCA,0.11
15,CGACCTTC,0.159
16,AGGCCTTC,-0.101
17,ACCTGAGT,-0.0229
18,AGATACAG,-0.0448
19,ACTGGCAG,-0.162
20,GATCTCGA,-0.119
21,GCTCCTAA,-0.0203
22,AGGATCCC,-0.115
23,CCCTCGCA,-0.123
24,GGTCAAAC,-0.0028
25,GTCGGAAC,0.315

row,Sequence,PBM E-score
1,GCTCAGAA,-0.0656
2,GCAACTGA,-0.127
3,GGGATAAA,0.275
4,ACACGCAG,-0.18
5,CCTTTTGC,-0.0722
6,ACTTTAAG,0.0294
7,GCATCCGC,0.0699
8,ACGCCTGC,-0.0631
9,ATCGGCCC,0.326
10,AAACAGAA,-0.113
11,CCTCACTA,0.0894
12,TATTAGGA,-0.105
13,CTTCCAGA,-0.165
14,CTCATACA,-0.129
15,CGGCGTAA,0.343
16,AATTCCAA,-0.114
17,CGACTATA,0.131
18,AGCCCTAA,-0.0289
19,ACACACGA,-0.0115
20,CTATCCAC,-0.1
21,ACTGGATC,-0.0252
22,ATACTGCA,0.123
23,CAGATCAG,-0.172
24,CGCCACTC,0.125
25,AAAGCGCC,0.13

row,Sequence,PBM E-score
1,AGATAATA,0.0325
2,AAATGAAT,-0.173
3,CGTTCCTA,-0.0477
4,AGAGAAAT,-0.0908
5,AAACGTGG,-0.159
6,GAGGTGCA,-0.0404
7,AGAAGAAT,0.00058
8,AGTCCCCC,-0.191
9,AAGGCTCT,-0.214
10,CACTCACC,-0.105
11,ATGTCCCC,0.224
12,ATTACTTC,-0.0445
13,CCTTTGGA,-0.123
14,CTCTTAAA,-0.0109
15,CTTATATC,0.0525
16,CCTAATCA,0.0412
17,AGATCCCC,0.0566
18,AGGATAGA,-0.11
19,AGCCCATG,-0.257
20,ATGGCATA,-0.195
21,AGTCTCGG,0.151
22,ACGCTAAT,0.039
